Measurements as given in PubChem BioAssay AID686978 (National Center for Advancing Translational Sciences (NCATS), 2013).
The whole screen tested about 420,000 compounds, of which about 64,000 (15%) were called active. This list was built around the results that the source calls inconclusive (neither active nor inactive); the mix of calls is not that of the screen. The call rests on the fitted dose curve; in most records, active means well fitted inhibition curve with a large enough effect; inconclusive means small, poorly fitted or top-dose-only effect; inactive means flat fitted curve, though single readings scatter. No potency is given beside an inconclusive call; the fits are too rough.

Test: qHTS for Inhibitors of human tyrosyl-DNA phosphodiesterase 1 (TDP1): qHTS in cells in absence of CPT; further: nearly all actives have a fitted effect of over 55% in size
Conditions: DT40 Tdp1-/- hTDP1 cells, no CPT, ATP luminescence, 48 h; activity change, negative = growth inhibition: at 46.2 µM (top of the series) unless noted
Summary of the method: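 DT40 Tdp1-/-;hTDP1 cells, no CPT (DMSO vehicle only), 400 cells/well; compounds pin-transferred; ≥48 hr, 37 °C; CellTiter-Glo 30 min RT dark, luminescence read.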
On the % scale 0 is the no-effect control and ±100 the full control effect; potency means the concentration at half of the fitted maximal effect; tags describe the fitted curve by direction and shape.

Structure (SMILES) | Potency | activity change, negative = growth inhibition
CCCOc1ccccc1C(=O)NCCCC(=O)O | inconclusive [inhibitor, full curve, poor fit] | –
COc1cccc(-c2c(NC(=O)c3ccco3)oc3ccc(Cl)cc3c2=O)c1 | inconclusive [inhibitor, single point] | –
Cc1oc(-c2ccccc2NC(=O)c2cccnc2)nc1CNC(=O)C1CCCCCN1C (centres undefined) | inconclusive [inhibitor, single point] | –
COCCN(C(=O)COC(=O)c1cc(C)n(-c2ccccc2)c1C)c1c(N)n(Cc2ccccc2)c(=O)[nH]c1=O | inconclusive [inhibitor, single point] | –
COc1ccccc1-c1cnc(C(O)c2cccc(C)c2C)[nH]1 (centres undefined) | active: 16.4 µM | –
O=C(NC(c1ccc(F)cc1)c1cnccn1)C1CCN(CCOc2ccc(Cl)cc2Cl)CC1 (centres undefined) | active: 16.4 µM | –
Cc1ccc(NC(=O)Cn2c(O)c(N=NS(=O)(=O)c3ccc(C)cc3)c3ccccc32)cc1 | active: 14.6 µM | –
CCOc1ccc(CCNC(=O)CCC(=O)N2CCSc3ccccc32)cc1OCC | inconclusive [inhibitor, single point] | –
Cn1c(SCC(=O)N2CCN(c3ccccc3)CC2)nnc1-c1ccco1 | – | inactive: -2.21%
CCC(C)NC(=O)Cc1ccc(NC(=O)N2CCCCc3ccccc32)cc1 (centres undefined) | inconclusive [inhibitor, single point] | –
CCn1c2ccccc2c2cc(NC(=O)CSc3nnc(C4CC4)n3Cc3ccco3)ccc21 | inconclusive [inhibitor, partial curve, poor fit] | –
CC(=O)c1ccc(Nc2nc(C(N)C(C)C)cs2)cc1 (centres undefined) | inconclusive [inhibitor, partial curve] | –
O=C(C[C@H]1C/C=C\CC[C@@H](Cc2ccc(F)cc2)C(=O)O[C@H](c2ccccc2)CNC1=O)N[C@H](CO)Cc1ccccc1 | active: 14.6 µM | –
CN1CCN(c2ccccc2NC(=O)c2sc3ccccc3c2Cl)CC1 | active: 20.6 µM | –
Cc1ccccc1NC(=O)CSC(N)=O | inconclusive [inhibitor, partial curve] | –
COc1ccc(CN(C(=O)CN2C(=O)COc3ccccc32)C2CCCC2)c(OC)c1 | inconclusive [inhibitor, single point] | –
Cc1ccc(-n2c(=O)c3oc4ccccc4c3n(CC(=O)Nc3ccc(F)c(Cl)c3)c2=O)cc1C | – | inactive: -19.4%
CN(C)CCNC(=O)c1cc2cc(Br)ccc2oc1=O | – | inactive: -15.8%
O=C(NNC(=O)c1ccccn1)c1ccc(OC(F)F)cc1 | active: 4.61 µM | –
Cc1ccc(S(=O)(=O)N2CCCOC2CNC(=O)C(=O)NCCc2c[nH]c3ccccc23)cc1 (centres undefined) | active: 18.4 µM | –
O=C(Cc1ccc(Cl)cc1)N1CCc2ccccc2C1 | inconclusive [inhibitor, partial curve] | –
CCOC(=O)c1ccccc1NC(=O)/C=C/c1cc(OC)c(OC)c(OC)c1 | active: 6.51 µM | –
CC(C)C(=O)NC(c1cccc([N+](=O)[O-])c1)c1ccc2cccnc2c1O (centres undefined) | active: 4.61 µM | –
Cc1ccccc1NCN1C(=O)C2C3C=CC(C3)C2C1=O (centres undefined) | – | inactive: 13.9%
O=C(Cc1ccccc1[N+](=O)[O-])NCCCc1ccccc1 | inconclusive [inhibitor, single point] | –

Structure (SMILES) | Potency | activity change, negative = growth inhibition
O=C(Nc1ccc(Cl)cn1)c1cccc(F)c1 | active: 4.61 µM | –
COc1cccc(Nc2c([N+](=O)[O-])cncc2[N+](=O)[O-])c1 | inconclusive [inhibitor, single point] | –
CC(=O)N1CCOc2cc(S(=O)(=O)Nc3c(C)cccc3C(C)C)c(Cl)cc21 | inconclusive [inhibitor, partial curve] | –
COc1ccc(N=c2cc(-c3ccc(OC)cc3)oc3ccccc23)cc1 | active: 23.1 µM | –
C=CCOc1nc2c(c(=O)n(C)c(=O)n2C)n1Cc1ccc(Cl)cc1Cl | active: 14.6 µM | –
CCOC(=O)N1CCC(N(CCN(C)C)C(=S)Nc2ccc(F)c(Cl)c2)CC1 | – | inactive: 7.99%
COc1cc2[nH]c(C(=O)N3CCC(Cc4ccccc4)CC3)cc2c(OC)c1OC | inconclusive [inhibitor, single point] | –
Cc1cccc(NC(=O)CNC(=O)CN2C(=O)NC3(CCCc4ccccc43)C2=O)c1C (centres undefined) | – | inactive: 9.47%
CC(C)NC(=O)C1(C)CN(S(C)(=O)=O)CC(=O)N1Cc1cccc(C(F)(F)F)c1 (centres undefined) | – | inconclusive: -30.2% [inhibitor]
CC(C)CCNC(=O)c1c2c(nc3ccccc13)C(=O)N(C1CCCCC1)C2 | inconclusive [inhibitor, single point] | –
Cc1ccc2nc(-c3ccncc3)cc(C(=O)Nc3ccncc3)c2c1 | inconclusive [inhibitor, partial curve] | –
CCOC(=O)c1c(-c2ccc(OC)cc2)csc1NC(=O)COc1ccc2c(C)cc(=O)oc2c1 | active: 16.4 µM | –
CN(CC(=O)NCc1cccnc1)S(=O)(=O)c1cc(Cl)ccc1Cl | inconclusive [inhibitor, partial curve] | –
OCc1cccc(Nc2ncnc3sc4c(c23)CCCCC4)c1 | inconclusive [inhibitor, single point] | –
Cc1cc(C)n(S(=O)(=O)c2cc(C(=O)O)c(Cl)cc2Cl)n1 | inconclusive [inhibitor, single point] | –
Cc1cc(C(=O)N(C)C)sc1-c1ccccc1 | inconclusive [inhibitor, single point] | –
O=C(COC(=O)/C=C/c1cccs1)NC1CCCCC1 | – | inactive: 16.1%
O=C(Nc1ccccc1F)C1CCN(S(=O)(=O)c2ccc3c(c2)CCCN3C(=O)C2CCC2)CC1 | inconclusive [inhibitor, single point] | –
CCOC(=O)C1=C(C)N(c2ccccc2)C(=O)/C1=C\c1ccc(O)c(OC)c1 | inconclusive [inhibitor, single point] | –
CN1CCc2cc3c(cc2C(=O)Cc2ccc4c(c2C1)OCO4)OCO3 | – | inactive: -24.2%
CCCCN(C)C(=O)c1ccc2c(c1)N(Cc1ccc(F)cc1)C(=O)c1ccccc1S2(=O)=O | active: 16.4 µM | –
Oc1ccc(Cc2ncc(C(F)(F)F)cc2Cl)cc1 | inconclusive [inhibitor, single point] | –
O=[N+]([O-])/C(N=Nc1ccccc1)=N\Nc1ccccc1 | – | inactive: 4.72%
O=C(c1ccccc1NS(=O)(=O)c1ccc(Cl)cc1)N1CCc2ccccc21 | – | inactive: 4.52%
CCOC(=O)c1c(NC(NC(C)=O)C(Cl)(Cl)Cl)sc2c1CCCC2 (centres undefined) | inconclusive [inhibitor, single point] | –

Structure (SMILES) | Potency | activity change, negative = growth inhibition
Cc1ccc(NC(=O)N2CCN(C)c3ncccc32)cc1C | – | inactive: 3.49%
CCc1noc(C)c1C(=O)Nc1nc2ccc(OC)cc2s1 | inconclusive [inhibitor, partial curve, poor fit] | –
CCOC(=O)NC(=O)CSc1nnnn1-c1ccc(Cl)cc1 | – | inactive: -8.12%
O=C(CN1C(=O)COc2ccc(S(=O)(=O)N3CCCCCC3)cc21)NCCc1ccccc1 | inconclusive [inhibitor, single point] | –
CCC(Cc1ccccc1)NC(=O)CCn1cccc1 (centres undefined) | – | inactive: -15.4%
Cc1ccc(OCCNC(=O)C(C)SCC(=O)Nc2ccc(F)cc2)cc1 (centres undefined) | – | inactive: 0.347%
O=C(NCc1cccnc1)c1cc(C2CCCCN2C(=O)CCCc2ccccc2)on1 (centres undefined) | inconclusive [inhibitor, single point] | –
Cc1cnc(NC(=O)CSc2ncn(-c3ccccc3)n2)s1 | – | inconclusive: -30% [inhibitor]
CCCCC[C@@H](C)N1C[C@H](COCc2ccccc2)Oc2cc(N3CCC[C@@H]3COC)ccc2S1(=O)=O | active: 14.6 µM | –
Cc1c(Cl)ccc(S(=O)(=O)Nc2cccnc2)c1Cl | – | inactive: 19.7%
CN(C)C(=O)c1ccc(Nc2nnc(-c3ccc(O)cc3)c3ccccc23)cc1 | inconclusive [inhibitor, single point] | –
COc1cc(/C=N/NS(=O)(=O)c2ccc(C)cc2)ccc1OCc1ccc(C(=O)O)cc1 | – | inactive: 20.1%
Cc1cccc(NS(=O)(=O)c2ccc(C)c(C(=O)NCCCN3CCOCC3)c2)c1 | – | inactive: -6.7%
O=C(CSc1n[nH]c(-c2ccccc2Br)n1)NCCN1C(=O)CSC1=O | – | inactive: 4.35%
Cc1ccc(CN2C(=O)N(c3ccccc3)C(=O)C2CC(=O)Nc2ccccc2)cc1 (centres undefined) | inconclusive [inhibitor, partial curve] | –
COc1cc(OC)c(N(C)C(=O)Cn2ncc3c(=O)oc4ccccc4c32)cc1Cl | – | inactive: 12.8%
CCN(CC)CCNC(=O)c1cccc(NC(=O)C(=O)c2cc(Br)ccc2NC(C)=O)c1 | – | inactive: 5.32%
COc1cccc(C(=O)NC2CC3CCCC(C2)N3CC(=O)Nc2ccccc2C(F)(F)F)c1 (centres undefined) | active: 16.4 µM | –
COc1ccc(CC(=O)Nc2nc3ccccc3s2)cc1S(=O)(=O)N1CCOCC1 | inconclusive [inhibitor, single point] | –
COC(=O)c1ccccc1NC(=O)N1CCC(n2c(C)nc3cccnc32)CC1 | inconclusive [inhibitor, single point] | –
Cc1nc(NC(=O)c2ccccc2[N+](=O)[O-])sc1C(=O)N(C)C | inconclusive [inhibitor, single point] | –
COC(CNC(=O)C1CCN(S(=O)(=O)c2cccc3nsnc23)CC1)OC | – | inactive: -1.42%
Cc1ccc(-n2c(=O)c3sccc3n(CC(=O)NCc3ccco3)c2=O)cc1 | – | inactive: -1.59%
O=C(NCc1ccco1)c1cccc2c1C(=O)c1ccc(N3CCCC3)cc1S2(=O)=O | inconclusive [inhibitor, single point] | –
